Laboratory results as given in PMC4534575, “The RNA Helicase DHX34 Activates NMD by Promoting a Transition from the Surveillance to the Decay-Inducing Complex” (Cell Reports, 2014).
Substitutions are numbered along the chain they refer to. Results are given in words; binding and its absence hold for the method and conditions named. In cells and extracts the contact can be indirect. Some binding calls cover weakened binding; strength is not graded here.

Amino acid sequences for entries named in this document (tags omitted).
UniProt Q96Q15: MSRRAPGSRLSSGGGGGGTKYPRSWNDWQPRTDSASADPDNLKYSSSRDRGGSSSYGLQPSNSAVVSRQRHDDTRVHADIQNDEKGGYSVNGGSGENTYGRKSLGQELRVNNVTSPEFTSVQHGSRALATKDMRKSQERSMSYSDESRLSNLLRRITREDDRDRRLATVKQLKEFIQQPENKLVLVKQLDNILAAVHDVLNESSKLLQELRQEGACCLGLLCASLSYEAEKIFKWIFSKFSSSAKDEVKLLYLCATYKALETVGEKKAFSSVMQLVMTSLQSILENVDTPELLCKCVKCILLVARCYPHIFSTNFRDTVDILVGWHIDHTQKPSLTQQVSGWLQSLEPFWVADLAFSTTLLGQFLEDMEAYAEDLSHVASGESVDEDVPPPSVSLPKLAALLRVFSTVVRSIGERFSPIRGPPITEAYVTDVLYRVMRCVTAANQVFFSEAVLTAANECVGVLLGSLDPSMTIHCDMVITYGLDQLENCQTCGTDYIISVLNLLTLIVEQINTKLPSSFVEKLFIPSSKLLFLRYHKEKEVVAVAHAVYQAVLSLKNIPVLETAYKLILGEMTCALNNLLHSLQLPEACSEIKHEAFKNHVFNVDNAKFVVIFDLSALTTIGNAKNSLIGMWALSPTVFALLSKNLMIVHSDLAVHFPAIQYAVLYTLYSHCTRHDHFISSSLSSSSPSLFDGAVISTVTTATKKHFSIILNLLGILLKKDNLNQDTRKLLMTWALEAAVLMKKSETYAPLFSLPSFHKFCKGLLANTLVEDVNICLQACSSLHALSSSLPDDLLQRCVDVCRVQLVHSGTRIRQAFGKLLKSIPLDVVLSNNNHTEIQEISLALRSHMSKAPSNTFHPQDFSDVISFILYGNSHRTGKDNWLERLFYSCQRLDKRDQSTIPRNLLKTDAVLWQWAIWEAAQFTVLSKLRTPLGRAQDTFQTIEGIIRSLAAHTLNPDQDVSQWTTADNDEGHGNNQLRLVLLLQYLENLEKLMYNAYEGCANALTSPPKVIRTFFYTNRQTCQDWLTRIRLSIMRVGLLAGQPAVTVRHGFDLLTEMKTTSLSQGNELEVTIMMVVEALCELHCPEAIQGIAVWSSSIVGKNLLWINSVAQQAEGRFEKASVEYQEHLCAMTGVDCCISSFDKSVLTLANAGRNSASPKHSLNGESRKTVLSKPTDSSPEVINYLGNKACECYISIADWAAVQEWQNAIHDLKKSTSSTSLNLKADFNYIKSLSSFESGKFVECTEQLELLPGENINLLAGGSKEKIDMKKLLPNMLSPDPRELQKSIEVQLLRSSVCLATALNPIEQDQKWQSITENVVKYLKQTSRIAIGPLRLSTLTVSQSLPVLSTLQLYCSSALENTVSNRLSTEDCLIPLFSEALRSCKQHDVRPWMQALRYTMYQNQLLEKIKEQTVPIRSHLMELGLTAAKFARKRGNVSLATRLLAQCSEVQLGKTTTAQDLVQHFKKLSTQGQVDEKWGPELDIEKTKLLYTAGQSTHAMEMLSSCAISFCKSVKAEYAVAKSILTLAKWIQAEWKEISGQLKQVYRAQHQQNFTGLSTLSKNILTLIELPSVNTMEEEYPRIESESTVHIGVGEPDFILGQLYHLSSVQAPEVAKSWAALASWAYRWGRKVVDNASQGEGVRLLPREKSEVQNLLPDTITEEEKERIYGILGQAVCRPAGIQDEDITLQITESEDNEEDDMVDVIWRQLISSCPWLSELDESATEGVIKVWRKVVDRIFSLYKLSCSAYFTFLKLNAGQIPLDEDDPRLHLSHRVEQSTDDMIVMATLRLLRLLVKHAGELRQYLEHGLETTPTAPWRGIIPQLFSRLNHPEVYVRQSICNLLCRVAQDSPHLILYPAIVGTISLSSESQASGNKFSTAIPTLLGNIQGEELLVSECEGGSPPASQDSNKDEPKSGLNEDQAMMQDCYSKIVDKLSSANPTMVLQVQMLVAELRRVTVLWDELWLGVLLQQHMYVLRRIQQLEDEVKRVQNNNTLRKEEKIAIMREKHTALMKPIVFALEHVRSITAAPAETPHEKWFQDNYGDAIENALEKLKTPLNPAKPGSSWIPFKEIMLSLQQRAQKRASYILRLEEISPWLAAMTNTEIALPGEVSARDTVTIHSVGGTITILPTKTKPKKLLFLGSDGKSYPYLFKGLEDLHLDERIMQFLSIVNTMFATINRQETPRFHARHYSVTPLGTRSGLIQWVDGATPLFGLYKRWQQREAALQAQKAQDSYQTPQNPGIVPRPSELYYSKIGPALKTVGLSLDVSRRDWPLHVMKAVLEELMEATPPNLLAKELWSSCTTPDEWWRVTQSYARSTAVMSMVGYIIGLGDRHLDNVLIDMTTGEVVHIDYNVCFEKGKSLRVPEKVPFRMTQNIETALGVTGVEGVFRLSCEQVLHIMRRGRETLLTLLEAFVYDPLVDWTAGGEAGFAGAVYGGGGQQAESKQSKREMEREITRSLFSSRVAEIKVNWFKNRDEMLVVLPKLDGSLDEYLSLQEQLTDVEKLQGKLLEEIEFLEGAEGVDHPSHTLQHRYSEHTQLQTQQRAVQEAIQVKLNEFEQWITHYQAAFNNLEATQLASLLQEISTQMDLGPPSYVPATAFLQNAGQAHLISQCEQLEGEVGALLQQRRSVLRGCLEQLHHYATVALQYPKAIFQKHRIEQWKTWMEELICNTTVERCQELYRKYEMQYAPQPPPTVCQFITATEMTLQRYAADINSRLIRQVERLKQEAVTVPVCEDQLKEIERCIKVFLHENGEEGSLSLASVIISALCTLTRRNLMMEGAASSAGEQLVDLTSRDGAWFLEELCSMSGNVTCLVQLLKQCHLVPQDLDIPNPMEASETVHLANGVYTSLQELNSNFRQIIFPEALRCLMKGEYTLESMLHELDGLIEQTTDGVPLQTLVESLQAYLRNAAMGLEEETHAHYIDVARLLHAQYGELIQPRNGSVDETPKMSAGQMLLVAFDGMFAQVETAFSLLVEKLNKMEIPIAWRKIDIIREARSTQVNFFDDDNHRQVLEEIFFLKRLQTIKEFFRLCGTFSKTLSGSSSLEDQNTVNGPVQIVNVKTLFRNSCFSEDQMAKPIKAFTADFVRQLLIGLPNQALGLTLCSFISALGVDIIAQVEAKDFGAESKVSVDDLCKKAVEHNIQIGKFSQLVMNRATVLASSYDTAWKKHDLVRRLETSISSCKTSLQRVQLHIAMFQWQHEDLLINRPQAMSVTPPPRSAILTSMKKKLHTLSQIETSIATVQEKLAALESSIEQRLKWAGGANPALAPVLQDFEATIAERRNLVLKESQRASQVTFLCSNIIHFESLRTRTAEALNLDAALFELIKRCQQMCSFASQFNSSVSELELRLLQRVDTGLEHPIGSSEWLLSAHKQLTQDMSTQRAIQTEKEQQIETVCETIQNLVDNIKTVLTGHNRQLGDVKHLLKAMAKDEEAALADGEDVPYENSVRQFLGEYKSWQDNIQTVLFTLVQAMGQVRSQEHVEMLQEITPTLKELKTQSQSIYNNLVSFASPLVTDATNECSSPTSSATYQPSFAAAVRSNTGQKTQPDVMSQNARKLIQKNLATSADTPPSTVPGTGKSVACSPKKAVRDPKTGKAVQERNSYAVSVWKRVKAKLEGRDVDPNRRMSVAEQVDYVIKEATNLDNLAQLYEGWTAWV

Assays:
[1] = biological target: T1, T7-DHX34 (wild-type) (human, UniProt Q14147 1-1143); experiment: co-IP; IP of transiently transfected T7-DHX34 (wild-type or mutants) from HEK293T lysate, in the presence of RNase A (Figure 3B); endogenous partners by western blot
T1 construct: Human DHX34, wild type; also called T7-tagged DHX34; shRNA-resistant (R) wild-type T7-DHX34; source: HEK293T, transiently transfected, in lysate; also purified on T7 agarose beads
T1 sequence (looked up): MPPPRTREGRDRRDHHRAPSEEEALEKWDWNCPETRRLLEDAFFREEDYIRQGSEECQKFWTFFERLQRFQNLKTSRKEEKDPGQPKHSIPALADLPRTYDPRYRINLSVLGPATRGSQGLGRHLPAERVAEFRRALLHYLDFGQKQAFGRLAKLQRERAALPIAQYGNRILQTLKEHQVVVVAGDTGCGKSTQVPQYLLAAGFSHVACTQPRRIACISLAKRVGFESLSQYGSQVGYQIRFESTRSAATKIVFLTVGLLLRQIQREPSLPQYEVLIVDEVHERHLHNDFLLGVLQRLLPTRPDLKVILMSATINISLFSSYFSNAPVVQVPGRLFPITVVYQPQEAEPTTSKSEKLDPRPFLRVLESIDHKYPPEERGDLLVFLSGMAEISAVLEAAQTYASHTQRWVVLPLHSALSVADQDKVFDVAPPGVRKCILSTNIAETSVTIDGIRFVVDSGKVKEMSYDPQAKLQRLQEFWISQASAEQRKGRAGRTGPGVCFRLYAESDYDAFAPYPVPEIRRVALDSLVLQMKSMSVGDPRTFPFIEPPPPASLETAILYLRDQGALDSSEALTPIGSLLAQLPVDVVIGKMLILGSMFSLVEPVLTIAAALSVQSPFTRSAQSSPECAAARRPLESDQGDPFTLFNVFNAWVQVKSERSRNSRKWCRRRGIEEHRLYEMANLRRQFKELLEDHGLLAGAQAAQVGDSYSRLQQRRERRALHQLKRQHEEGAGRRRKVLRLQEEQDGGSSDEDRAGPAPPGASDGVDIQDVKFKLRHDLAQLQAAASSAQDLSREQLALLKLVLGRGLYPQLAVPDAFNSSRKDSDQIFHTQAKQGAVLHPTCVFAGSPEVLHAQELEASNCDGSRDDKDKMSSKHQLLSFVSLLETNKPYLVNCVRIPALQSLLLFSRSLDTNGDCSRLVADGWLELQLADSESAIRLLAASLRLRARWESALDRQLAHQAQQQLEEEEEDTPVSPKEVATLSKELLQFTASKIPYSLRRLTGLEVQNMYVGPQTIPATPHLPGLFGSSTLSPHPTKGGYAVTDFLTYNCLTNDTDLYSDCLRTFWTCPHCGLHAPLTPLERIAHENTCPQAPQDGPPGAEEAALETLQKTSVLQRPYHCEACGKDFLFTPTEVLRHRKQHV

[2] = biological target: T2, T7-DHX34 K191S (human) (UniProt Q14147); experiment: as above
T2 sequence: T1 sequence (looked up) with K191S

SMG1 (from UniProt Q96Q15 1-3661)
binding [1]: binds | binding [2]: binds
